Measured values reported in patent publication US20210317204A1 (ALMAC DISCOVERY, published 2021).

Tests used:
[1] = target: T1, human ROR1 on the surface of human cancer cell lines (human, UniProt Q01973); test: flow cytometry on A549 at 4 C and 37 C, PE-anti-Myc; signal not split between ROR1 and EGFR
T1 construct: whole, on cells; the cell line is named under assay; also called cell surface ROR1

[2] = target: T2, human EGFR on the surface of human cancer cell lines (human); test: as above
T2 construct: whole, on cells; also called cell surface EGFR

binding result [1]: binds
binding result [2]: binds
B1: 7C12 P3A1 QASGA (bispecific antibody)
single chain: AVQLVESGGGSVQAGGSLRLT[about 100 residues cut from this listing]WGQGTQVTVSSGGGGSGGGGSGGGGSGGGGSGGGGSTRVDQTPRTATKETGESLTINCVLTDTSYGLYSTSWFRKNPGTTDWERMSIGGRYVESVNKGAKSFSLRIKDLTVADSATYYCKAREARHPWLRQWYDGAGTVLTVNQASGAHHHHHHGAEFEQKLISEEDL
notes: also called 7C12-P3A1 QASGA his myc
